Among all 310,000 compounds or so, about 2,200 (0.71%) showed an effect of 50% or more. Effects have a minus sign here. The list shows a part of the results.

Sequence of human ether-à-go-go-related gene (hERG) potassium channel (Q12809 whole entry, looked up): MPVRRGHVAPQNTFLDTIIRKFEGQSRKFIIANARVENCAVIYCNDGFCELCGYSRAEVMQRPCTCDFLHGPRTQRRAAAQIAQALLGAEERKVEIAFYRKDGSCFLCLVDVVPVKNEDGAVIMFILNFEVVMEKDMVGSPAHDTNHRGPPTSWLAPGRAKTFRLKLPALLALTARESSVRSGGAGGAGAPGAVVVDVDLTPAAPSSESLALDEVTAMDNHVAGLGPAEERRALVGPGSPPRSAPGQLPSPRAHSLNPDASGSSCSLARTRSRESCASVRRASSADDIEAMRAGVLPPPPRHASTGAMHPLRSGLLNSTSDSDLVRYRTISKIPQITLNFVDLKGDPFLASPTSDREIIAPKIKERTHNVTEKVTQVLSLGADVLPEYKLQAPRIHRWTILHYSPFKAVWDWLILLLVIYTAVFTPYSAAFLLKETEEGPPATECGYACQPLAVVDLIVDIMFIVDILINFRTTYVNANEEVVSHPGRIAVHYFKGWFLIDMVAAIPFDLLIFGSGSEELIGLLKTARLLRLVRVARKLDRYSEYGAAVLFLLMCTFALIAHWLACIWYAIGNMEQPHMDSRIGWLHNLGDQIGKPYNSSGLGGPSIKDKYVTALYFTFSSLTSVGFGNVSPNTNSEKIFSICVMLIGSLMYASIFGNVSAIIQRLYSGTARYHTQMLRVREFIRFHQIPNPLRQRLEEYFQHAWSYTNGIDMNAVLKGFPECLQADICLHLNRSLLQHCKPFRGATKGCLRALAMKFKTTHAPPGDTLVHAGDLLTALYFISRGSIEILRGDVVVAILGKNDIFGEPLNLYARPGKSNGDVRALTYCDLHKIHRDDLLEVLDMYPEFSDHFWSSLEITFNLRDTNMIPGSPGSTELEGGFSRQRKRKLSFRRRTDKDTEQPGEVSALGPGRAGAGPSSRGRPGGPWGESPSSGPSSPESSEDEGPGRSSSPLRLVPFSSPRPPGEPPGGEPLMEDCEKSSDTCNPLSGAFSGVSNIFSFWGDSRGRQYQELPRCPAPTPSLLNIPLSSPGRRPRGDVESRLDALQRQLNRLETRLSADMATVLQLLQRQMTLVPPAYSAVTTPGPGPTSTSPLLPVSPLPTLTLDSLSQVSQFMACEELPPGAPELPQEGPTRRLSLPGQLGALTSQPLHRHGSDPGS

The experiment concerns the target human ether-à-go-go-related gene (hERG) potassium channel (human, UniProt Q12809). The experiment can be described thus: primary screen, population patch clamp on CHO cells stably expressing hERG.
For `CC(C)(Oc1ccc(Cl)cc1)C(=O)N1CCN(C(=O)c2ccco2)CC1`, the “hERG current change (%, negative = inhibition) at 1uM” value is 9.34%. To `O=c1[nH]c(NCc2ccccc2)nc2c1CCCC2` belongs 5.5%; to `CCCCC1C(=O)N(c2ccccc2)N(c2ccc(O)cc2)C1=O` (centres unmarked), 7.99%; to `Cc1cc(N2CCN(C)CC2)nc2ccc(NC(=S)NCCCN3CCc4ccccc4C3)cc12`, 1.96%.

With `COc1ccccc1NS(=O)(=O)c1cccc(C(=O)N2CCN(C/C=C/c3ccccc3)CC2)c1`, the “hERG current change (%, negative = inhibition) at 1uM” value was determined as 8.6%.

As for `Cc1ccc(C(=O)NCC(=O)N2CCC(Cc3ccccc3)CC2)cc1`, the “hERG current change (%, negative = inhibition) at 1uM” value turned out to be 2.08%. In the case of `S=C(Nc1ccc(Nc2ccccc2)cc1)Nc1ccccn1` it was 15.3%; in that of `CCOc1ccccc1OCCCC(=O)N(CC)CC(=O)Nc1ccc(NC(C)=O)cc1`, 11.6%. In the case of `Cc1cccc(Nc2ncnc3nc[nH]c23)c1C` it was -9.96%; in that of `COc1ccc(C2C=C(C)Nc3ncnn32)cc1` (centres unmarked), 14.7%.

Take `COc1cc2ncnc(NCc3ccc(Cl)cc3)c2cc1OC`: the “hERG current change (%, negative = inhibition) at 1uM” value is listed as 3.84%. Turning to `COc1ccc(C(=O)Nc2cccc(OC)c2)cc1`, the “hERG current change (%, negative = inhibition) at 1uM” value stood at 23.6%.

For `COc1ccc(NC(=O)C2CCN(C(=O)c3ccc(OC)cc3)CC2)cc1`, the “hERG current change (%, negative = inhibition) at 1uM” value is on record as -69.6%.

With `Cc1nnc(SCC(=O)NC2CCS(=O)(=O)C2)n1-c1ccccc1` (centres unmarked), the “hERG current change (%, negative = inhibition) at 1uM” value was found to be 9.38%. To `Cc1cccc(N2CCN(C(=O)c3ccncc3)CC2C)c1` (centres unmarked) belongs 16.9%; to `Cc1cc(N2CCCC2=O)cc(C)c1CN1C(=O)c2ccccc2C1=O`, 17%. To `Cc1ccnc(SCC(=O)N2CCN(c3cccc(Cl)c3)CC2)n1` belongs 1.16%; to `C=C/C(C)=C/C[C@H]1C(=C)CCC2[C@](C)(C(=O)O)CCC[C@@]21C` (some centres unmarked), 9.73%.

For `CC(C)c1ccc(NC(=O)C(c2ccc3c(c2)OCO3)N2CCC3(CC2)OCCO3)cc1` (centres unmarked), the “hERG current change (%, negative = inhibition) at 1uM” value was -0.174%.

Take `COc1ccc(NC(=O)CSc2nc3ccccc3cc2Cc2ccccc2)cc1`: the “hERG current change (%, negative = inhibition) at 1uM” value is reported as 12.7%. To `CCCN1C2CCCC1CC(NC(=O)c1cc(OC)c(OC)c(OC)c1)C2` (centres unmarked) belongs 11.8%. To `Cc1cc([N+](=O)[O-])nn1CCCC(=O)N1CCN(c2ccc(F)cc2)CC1` belongs -7.23%; to `O=C(CNC(=O)c1nc[nH]c1C(=O)N1CC[NH2+]CC1)OCc1ccccc1.[Cl-]`, 2.75%; to `COc1cc([N+](=O)[O-])ccc1NC(=O)Cc1ccc(C)cc1`, 11.7%. `O=C(NCCc1ccccc1Cl)C1CCN(S(=O)(=O)c2cccs2)CC1`: the “hERG current change (%, negative = inhibition) at 1uM” value is listed as 0.833%. In the case of `O=C(CSc1ccccc1)NCCc1ccccc1` it was 12.8%; in that of `Cc1ccc(S(=O)(=O)N2[C@@H](c3ccccc3)C(C(=O)O)=CC[C@H]2c2cccs2)cc1`, 12.9%; in that of `Cc1ccc(N2CCN(c3ccc(C)cc3)C2c2ccncc2)cc1`, -0.287%. Turning to `O=C(CC1C(=O)NCCN1Cc1c(F)cccc1Cl)NC1CCCCCC1` (centres unmarked), the “hERG current change (%, negative = inhibition) at 1uM” value was 3.77%.

For the compound `CCOC(=O)CCNC(C(=O)OCC)c1ccccc1` (centres unmarked), the “hERG current change (%, negative = inhibition) at 1uM” value stood at 2.69%.

Consider `COc1ccc(C(=O)Nc2ccc(C3(C#N)CCCC3)cc2)cc1`, for which the “hERG current change (%, negative = inhibition) at 1uM” value is on record as 12.2%. With `COc1cc2c(cc1OC)C(C(=O)N1CCCCC1)C(c1ccccc1F)N(C)C2=O` (centres unmarked), the “hERG current change (%, negative = inhibition) at 1uM” value worked out at 13.3%. In the case of `O=C1CCC([N+](=O)[O-])C(c2cc(Br)ccc2F)N1` (centres unmarked) it was 14.5%. On to `N#Cc1c(Cc2cccc3ccccc23)nn(CCO)c1N`, for which the “hERG current change (%, negative = inhibition) at 1uM” value is 11.8%. Turning to `O=C(NC1CCCC1)C(c1ccsc1)N(C(=O)Cc1cccs1)c1ccccc1` (centres unmarked), the “hERG current change (%, negative = inhibition) at 1uM” value turned out to be 8.12%. To `O=c1c2ccccc2oc2nc(-c3ccco3)n(Cc3ccccc3)c(=O)c12` belongs 5.08%; to `CCOC(=O)Cc1csc(SCC(=O)/C(C#N)=C(\C)N)n1`, 6.86%. `COc1cccc(C(=O)Nc2ccncc2)c1OC`: the “hERG current change (%, negative = inhibition) at 1uM” value is 9.58%. To `COc1ccc(OC)c(C2C(C(C)=O)=C(O)C(=O)N2Cc2cccnc2)c1` (centres unmarked) belongs 7.26%; to `COc1cccc(Nc2ccc(C(=O)O)cc2N)c1`, 13.4%.

As to `COc1ccc(CC(NC(C)=O)C(=O)NC2CCN(C(=O)c3ccccc3F)CC2)cc1` (centres unmarked), the “hERG current change (%, negative = inhibition) at 1uM” value is 14.7%. In the case of `CNc1ccc([N+](=O)[O-])cc1-c1nc2ccccc2[nH]c1=O` it was 27.4%; in that of `S=c1[nH]nc(-c2ccccn2)n1/N=C/c1ccc(Cl)cc1`, 10.2%. `CCOc1ccc(NC(=O)CN(C)C(=O)c2ccc(OCc3ccccc3)c(OC)c2)cc1OCC`: the “hERG current change (%, negative = inhibition) at 1uM” value stood at 7.4%.
